The values that follow come from publication PMC6919601, “Identification of Plasmodium dipeptidyl aminopeptidase allosteric inhibitors by high throughput screening” (PLoS ONE, 2019).

Structures are written as SMILES. Among all 110,000 compounds or so, about 230 (0.21%) showed an effect of 50% or more. This is one part of the list.
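Also: 30 min substrate incubation versus DMSO and 10 µM JCP410 controls.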

For this assay, the target named is DPAP1 (Plasmodium falciparum, UniProt Q8IIJ9). The assay is described as follows: primary screen, percent inhibition; read by cleavage of a fluorogenic dipeptide substrate; higher = more effect of the substance. Also on record: species or system P. falciparum D10 trophozoite lysates; single well.
DPAP1, sequence (Q8IIJ9 whole entry, looked up): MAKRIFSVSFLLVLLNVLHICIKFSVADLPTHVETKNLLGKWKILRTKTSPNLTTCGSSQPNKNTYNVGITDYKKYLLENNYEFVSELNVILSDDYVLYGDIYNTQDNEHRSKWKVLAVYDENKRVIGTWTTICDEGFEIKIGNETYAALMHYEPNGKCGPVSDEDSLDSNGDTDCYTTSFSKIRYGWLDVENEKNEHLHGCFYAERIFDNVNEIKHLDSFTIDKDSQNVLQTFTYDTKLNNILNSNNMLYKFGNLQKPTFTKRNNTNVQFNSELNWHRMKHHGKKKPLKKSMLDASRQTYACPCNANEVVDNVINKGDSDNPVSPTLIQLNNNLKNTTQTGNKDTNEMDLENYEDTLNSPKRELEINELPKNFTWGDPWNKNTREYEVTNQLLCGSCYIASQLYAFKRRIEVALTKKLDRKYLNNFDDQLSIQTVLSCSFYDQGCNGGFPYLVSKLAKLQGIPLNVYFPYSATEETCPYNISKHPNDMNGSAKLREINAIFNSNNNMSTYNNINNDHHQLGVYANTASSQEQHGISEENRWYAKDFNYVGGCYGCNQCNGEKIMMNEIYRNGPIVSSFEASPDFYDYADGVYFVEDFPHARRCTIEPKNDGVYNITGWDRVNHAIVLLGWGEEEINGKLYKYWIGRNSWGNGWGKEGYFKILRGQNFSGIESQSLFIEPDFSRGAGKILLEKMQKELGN
For the compound `CC(C)n1c(N2CCN(C)CC2)nc2c1c(=O)[nH]c(=O)n2C`, the “% Inhibition @ 10 uM” value was determined as 5.51%. As to `Cc1ccc(Oc2nc3c(C)cccn3c(=O)c2/C=C(\C#N)S(=O)(=O)c2ccc(Cl)cc2)cc1`, the “% Inhibition @ 10 uM” value is reported as -3.23%. `Cc1ccccc1CSCC(=O)NC1CCCC1`: the “% Inhibition @ 10 uM” value is given as 2.15%.

Regarding `CC1CCC2C(C1)Nc1c(C(=O)O)cccc1C2(C)C` (centres unmarked), the “% Inhibition @ 10 uM” value is reported as -2.97%. Next, `c1nc(N2CCOCC2)c2c3c(sc2n1)CCCC3`: 23.9%; `CCOc1ccc(CNCc2c(C(=O)O)c(C)n(Cc3ccc(F)cc3)c2C)cc1OC`: 2.99%; `Cc1ccc(CNC(=O)C(C)n2c3ccccc3c3cnnc(O)c32)cc1` (centres unmarked): -5.63%. For the compound `O=S1(=O)N=C(Nc2cccc3ccccc23)c2ccccc21`, the “% Inhibition @ 10 uM” value was 2.6%. As for `Cc1ccccc1NC(=O)CC(NC(=O)C(F)(F)F)c1ccccc1` (centres unmarked), the “% Inhibition @ 10 uM” value was 1.9%. For `CC1(C)CC(O)=C/C(=N/c2ccc(Oc3ccccc3)cc2)C1`, the “% Inhibition @ 10 uM” value came out at 3.19%. The same measure for `O=C(O)C1C2C=CC(O2)C1C(=O)Nc1ccc(Cl)c(Cl)c1` (centres unmarked): -5.46%; for `COc1cc(CNCCO)ccc1OCc1ccccc1Cl`: -6.92%.

`CC(C)(C)c1ccc(OCC(=O)N(Cc2ccccc2)C2CCS(=O)(=O)C2)cc1` (centres unmarked): the “% Inhibition @ 10 uM” value worked out at 2.24%. For the compound `O=C(Cc1ccccc1)Nc1nn2c(COc3ccccc3)nnc2s1`, the “% Inhibition @ 10 uM” value worked out at 2.53%. For `Cc1c(CCC(=O)O)c(=O)oc2c(C)c3occ(C(C)(C)C)c3cc12`, the “% Inhibition @ 10 uM” value is listed as 0.558%. For the compound `Clc1ccc2oc(-c3ccccc3)c/c(=N\CC3CCCO3)c2c1` (centres unmarked), the “% Inhibition @ 10 uM” value is reported as -1.18%.

In the case of `C/C(=N\N=C\c1ccccn1)c1nnn(-c2nonc2N)c1C`, the “% Inhibition @ 10 uM” value is -1.68%. Consider `COc1cc(CNC(=O)c2cc(-c3ccc(F)cc3)[nH]n2)cc(OC)c1OC`, for which the “% Inhibition @ 10 uM” value is given as 3.13%.

Take `Cc1ccc(C(=O)N/C(=C/c2cccs2)C(=O)NCCCn2cccn2)cc1C`: the “% Inhibition @ 10 uM” value was determined as 0.503%.

With `CC1(C)C(C=C(Cl)Cl)C1C(=O)N1CCN(Cc2ccc3c(c2)OCO3)CC1` (centres unmarked), the “% Inhibition @ 10 uM” value was -7.96%. For the compound `CC1CC(=O)CCN1C(=O)c1ccccc1` (centres unmarked), the “% Inhibition @ 10 uM” value is -1.92%. Next, `COc1ccccc1CCNC1CCCCC1`: -2.35%. `Cc1ccnc2nc(NC(=O)Cc3ccc(Cl)cc3)nn12`: the “% Inhibition @ 10 uM” value amounted to 2.05%.

On to `COc1cccc(CN2CCN(C(=O)COc3ccccc3)CC2)c1`, for which the “% Inhibition @ 10 uM” value is recorded as -3.24%. As for `CCOC(=O)c1[nH]c2ccc(OC)cc2c1NC(=S)N(C)Cc1ccccc1`, the “% Inhibition @ 10 uM” value worked out at 1.68%. Take `Cn1cc(NC(=O)NCCC2=CCCCC2)c2ccccc2c1=O`: the “% Inhibition @ 10 uM” value is on record as -3.22%. Take `O=C(NC(C(=O)O)C12CC3CC(CC(C3)C1)C2)c1ccc(-c2ccccc2)cc1` (centres unmarked): the “% Inhibition @ 10 uM” value is listed as 2.86%. The same measure for `N#Cc1ccc(OC(=O)COc2ccc([N+](=O)[O-])cc2)cc1`: 3.58%.

`CCNc1nc(CC)nc(OCC)n1`: the “% Inhibition @ 10 uM” value was -8.49%. For `Cc1ccc(-c2cc(C(=O)N3CCCC3)c3ccccc3n2)s1`, the “% Inhibition @ 10 uM” value is recorded as 4.39%. For the compound `CC(=O)Nc1ccc(NC(=O)CN(c2ccccc2F)S(=O)(=O)c2ccc(C)cc2)cc1`, the “% Inhibition @ 10 uM” value stood at 5.29%.

Take `O=C(Nc1ccccn1)c1ccc2ccccc2c1O`: the “% Inhibition @ 10 uM” value is given as -1.85%. As for `C/N=c1\c(NS(=O)(=O)c2ccc(F)c(C)c2)c(O)oc2ccccc12`, the “% Inhibition @ 10 uM” value came out at 4.47%.

Consider `N=C1/C(=C\c2coc3ccccc3c2=O)C(=O)N=C2SC(c3cccnc3)=NN12`, for which the “% Inhibition @ 10 uM” value was -9.6%. Next, `CC(C)Cc1cc(C(=O)Nc2cnn(Cc3ccc(Cl)cc3Cl)c2)no1`: 2.4%.

With `Cc1ccc2nc(NC(=O)Cn3cc4c(n3)CCCCC4)sc2c1`, the “% Inhibition @ 10 uM” value is on record as 3.4%. The same measure for `Cn1ncc(Br)c1C(=O)Nc1nc2ccc(S(C)(=O)=O)cc2s1`: -0.725%; for `CC(C)OCCCNc1ncnc2c1c(-c1ccccc1)cn2-c1ccccc1`: 3.99%; for `COc1ccc(CNC(=O)c2ccc3c(c2)C(=O)N(Cc2ccco2)C3=O)cc1`: 0.708%.

On to `CCOC(=O)C1=CN(C)C=C(C(=O)OCC)C1c1cccc(Oc2ccccc2)c1`, for which the “% Inhibition @ 10 uM” value came to 4.99%. As to `CCOC(=O)NC1(C(F)(F)F)NC(=O)N(c2ccc(C)cc2)C1=O` (centres unmarked), the “% Inhibition @ 10 uM” value is reported as -0.132%.

As to `Cc1nc2ncnn2c(O)c1CCC(=O)NCC(C)c1ccccc1` (centres unmarked), the “% Inhibition @ 10 uM” value is on record as -4.97%. Turning to `CCc1nnc2c(NCc3ccccc3Cl)nc3ccccc3n12`, the “% Inhibition @ 10 uM” value is listed as -4.47%. For `CCOC(=O)C1CCN(c2ccc(Cl)cn2)CC1`, the “% Inhibition @ 10 uM” value was 3.76%.

Turning to `Cc1ccc(CNC(=O)c2ccc3c(Cl)c4c(nc3c2)CCCC4)o1`, the “% Inhibition @ 10 uM” value was 4.41%. As to `OC1C2CCC1C(N1CCCCC1)CC2` (centres unmarked), the “% Inhibition @ 10 uM” value is 2.92%. The same measure for `Cc1nc2c(c3c1[nH]c1ccccc13)/C(=N\O)CC(C)(C)C2`: -1.05%; for `Cc1ccsc1CN(C(=O)c1ccc(OC(C)C)cc1)C1CCS(=O)(=O)C1` (centres unmarked): 2.19%. `CCOc1ccc(N2CC(C(=O)Nc3c(C)cc(Br)cc3C)CC2=O)cc1` (centres unmarked): the “% Inhibition @ 10 uM” value was found to be 4.05%. As for `CCOC(=O)c1c(N)c(C#N)n2c1CCC2`, the “% Inhibition @ 10 uM” value is reported as -2.55%. With `CC(C)C[C@H](NC(=O)OCc1ccccc1)C(=O)N[C@H](C#N)CCC(=O)OC(C)(C)C`, the “% Inhibition @ 10 uM” value is listed as 3.19%.

Take `O=C(c1cccnc1Cl)N1CCN(c2ccc(F)cc2)CC1`: the “% Inhibition @ 10 uM” value was -1.89%.

For the compound `CC(C)OCCCNC(=O)CCC(=O)N1CCSc2ncccc21`, the “% Inhibition @ 10 uM” value is recorded as -9.2%. On to `c1ccc2c(c1)c1ccccc1n2CCCN1CCOCC1`, for which the “% Inhibition @ 10 uM” value is recorded as -3.5%. Regarding `CS(=O)(=O)N1CCN(c2ccc(NC(=O)c3ccc4ccccc4c3)cc2)CC1`, the “% Inhibition @ 10 uM” value is -6.39%. The same measure for `O=C1C2C3CCC(C3)C2C(=O)N1c1ccc(Cl)c(Cl)c1` (centres unmarked): -4.69%; for `Cc1ccnc(NC(=O)c2ccc(-c3ccccc3)cc2)n1`: 0.161%. Take `COc1cc(/C=C2/Sc3ccccc3C2=O)cc(Br)c1OC`: the “% Inhibition @ 10 uM” value is listed as 0.76%. For the compound `Cc1nc2nc(C(F)(F)F)nn2c(O)c1Cc1ccccc1`, the “% Inhibition @ 10 uM” value is reported as -1.52%. As to `C=CCSC1=C(C#N)C(c2ccccc2C)CC(=O)N1` (centres unmarked), the “% Inhibition @ 10 uM” value was -1.08%. Next, `COc1ccc(-c2nc(CNS(=O)(=O)c3c(C)cc(C)cc3C)cs2)cc1`: -2.45%. On to `Cc1ccc(NC(=O)C2CC(=O)N(c3ccccc3)C2)cc1` (centres unmarked), for which the “% Inhibition @ 10 uM” value was -0.28%. Regarding `COCCNC(=O)CCCn1nc(C)n2c(cc3sccc32)c1=O`, the “% Inhibition @ 10 uM” value is 1.8%.

With `COc1ccc(C2NC(C(=O)O)CS2)cc1COCC(F)(F)F` (centres unmarked), the “% Inhibition @ 10 uM” value amounted to 9.86%. For the compound `Nc1ccc2c(c1)S(=O)(=O)c1cc(N)ccc1O2`, the “% Inhibition @ 10 uM” value is -0.693%.
